# From the supplement of paper PMC8728848
# The other results are listed elsewhere or left out.
# Legend:
# Experiment in all cases: glycan array binding signal (z-score within array); higher = stronger binding
# Details in all cases: glycan notation: IUPAC condensed, linker removed
# [1] = target: Fuc(a1-3)[Gal3S(b1-4)]GlcNAc6S
# In short: (§1)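 Glycan array data came from 3228 arrays in the Consortium for Functional Glycomics database, and only arrays with an available protein sequence were kept. Glycan names were put into IUPAC-condensed notation, and columns mapping to the same glycan were averaged. The binding signal is a within-array Z-score, averaged across arrays of one protein sequence run at different concentrations or buffers and across linkers. A negative Z-score can be read as non-binding.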
# [2] = target: Fuc(a1-3)[GalNAc(b1-4)]GlcNAc
# In short: as §1
# [3] = target: Fuc(a1-3)[GalNAc(b1-4)]GlcNAc6S
# In short: as §1
# Fuc(a1-4)GlcNAc = target: Fuc(a1-4)GlcNAc
# In short: as §1
# Fuc(b1-3)GlcNAc = target: Fuc(b1-3)GlcNAc
# In short: as §1
# Gal(a1-2)Gal = target: Gal(a1-2)Gal
# In short: as §1
# Gal(a1-3)Gal = target: Gal(a1-3)Gal
# In short: as §1
# Gal(a1-3)Gal(b1-3)GlcNAc = target: Gal(a1-3)Gal(b1-3)GlcNAc
# In short: as §1
# [4] = target: Gal(a1-3)Gal(b1-3)GlcNAc(b1-2)Man
# In short: as §1
# [5] = target: Gal(a1-3)Gal(b1-3)GlcNAc(b1-2)Man(a1-3)[Gal(a1-3)Gal(b1-3)GlcNAc(b1-2)Man(a1-6)]Man(b1-4)GlcNAc(b1-4)GlcNAc
# In short: as §1
# [6] = target: Gal(a1-3)Gal(b1-3)GlcNAc(b1-3)GalNAc
# In short: as §1
# [7] = target: Gal(a1-3)Gal(b1-3)GlcNAc(b1-6)GalNAc
# In short: as §1
# [8] = target: Gal(a1-3)Gal(b1-3)[Fuc(a1-4)]GlcNAc(b1-2)Man(a1-3)[Gal(a1-3)Gal(b1-3)[Fuc(a1-4)]GlcNAc(b1-2)Man(a1-6)]Man(b1-4)GlcNAc(b1-4)GlcNAc
# In short: as §1
# Gal(a1-3)Gal(b1-4)Glc = target: Gal(a1-3)Gal(b1-4)Glc
# In short: as §1
# Gal(a1-3)Gal(b1-4)GlcNAc = target: Gal(a1-3)Gal(b1-4)GlcNAc
# In short: as §1
# [9] = target: Gal(a1-3)Gal(b1-4)GlcNAc(b1-2)Man
# In short: as §1
# [10] = target: Gal(a1-3)Gal(b1-4)GlcNAc(b1-2)Man(a1-3)[Gal(a1-3)Gal(b1-4)GlcNAc(b1-2)Man(a1-6)]Man(b1-4)GlcNAc(b1-4)GlcNAc
# In short: as §1
# [11] = target: Gal(a1-3)Gal(b1-4)GlcNAc(b1-3)GalNAc
# In short: as §1
# [12] = target: Gal(a1-3)Gal(b1-4)GlcNAc(b1-6)GalNAc
# In short: as §1
# [13] = target: Gal(a1-3)Gal(b1-4)[Fuc(a1-3)]GlcNAc
# In short: as §1
# [14] = target: Gal(a1-3)Gal(b1-4)[Fuc(a1-3)]GlcNAc(b1-2)Man(a1-3)[Gal(a1-3)Gal(b1-4)[Fuc(a1-3)]GlcNAc(b1-2)Man(a1-6)]Man(b1-4)GlcNAc(b1-4)GlcNAc
# In short: as §1
# Gal(a1-3)GalNAc = target: Gal(a1-3)GalNAc
# In short: as §1
# [15] = target: Gal(a1-3)[Gal(a1-4)]Gal(b1-4)GlcNAc
# In short: as §1
# [16] = target: Gal(a1-4)Gal(b1-3)GlcNAc(b1-2)Man(a1-3)[Gal(a1-4)Gal(b1-3)GlcNAc(b1-2)Man(a1-6)]Man(b1-4)GlcNAc(b1-4)GlcNAc
# In short: as §1
# Gal(a1-4)Gal(b1-4)Glc = target: Gal(a1-4)Gal(b1-4)Glc
# In short: as §1
# Gal(a1-4)Gal(b1-4)GlcNAc = target: Gal(a1-4)Gal(b1-4)GlcNAc
# In short: as §1
# [17] = target: Gal(a1-4)Gal(b1-4)GlcNAc(b1-2)Man(a1-3)[Gal(a1-4)Gal(b1-4)GlcNAc(b1-2)Man(a1-6)]Man(b1-4)GlcNAc(b1-4)GlcNAc
# In short: as §1
# [18] = target: Gal(a1-4)Gal(b1-4)GlcNAc(b1-3)Gal(b1-4)Glc
# In short: as §1
# Gal(a1-4)GlcNAc = target: Gal(a1-4)GlcNAc
# In short: as §1
# Gal(a1-6)Glc = target: Gal(a1-6)Glc
# In short: as §1
# Gal(b1-2)Gal = target: Gal(b1-2)Gal
# In short: as §1
# Gal(b1-3)Gal = target: Gal(b1-3)Gal
# In short: as §1
# Gal(b1-3)Gal(b1-4)GlcNAc = target: Gal(b1-3)Gal(b1-4)GlcNAc
# In short: as §1
# Gal(b1-3)GalNAc = target: Gal(b1-3)GalNAc
# In short: as §1
# [19] = target: Gal(b1-3)GalNAc(a1-3)[Fuc(a1-2)]Gal(b1-4)Glc
# In short: as §1
# [20] = target: Gal(b1-3)GalNAc(a1-3)[Fuc(a1-2)]Gal(b1-4)GlcNAc
# In short: as §1
# Gal(b1-3)GalNAc(b1-3)Gal = target: Gal(b1-3)GalNAc(b1-3)Gal
# In short: as §1
binder,measurement,setting,value
GS13846A-bth-444-19-444 (Bacteroides thetaiotaomicron) (protein) SCENEFDVSDKADSLISVTVNTLNNQAAYNVGETAQAELWIQRGGLKDASGKVQFVVDPLLLDSLNQEDKTNYELLPENCYEMTNTEFTVDKNELCGYITYHPEKILALSAYNETKYVLPLRLISNDLAINPARNTSFLAFTILEPIVHISNAGVYNINPDLTSTMDIQIGVPFTNKWDILCNLTEDLSLIDEYNQINKVNFTLLPENAYTAPESVTLQEGVSQITASYQLKNNLVPGNYILPIKIGSITASQGGVPNNSLVIDEESNVLFCIVKEGNKINKSGWEVIECSSEHAGNEATYMIDDNESTYWHCKFKNEAGSSVPPFHFIIDMKKEITIAQIDLLNRGDGAANNIKWVEFYASNNNSEWDKIGAGDFNDEGTRATFRYYVKSTKARYLKLIIPEGYGNNCPPAAIRELTVYGLEGNN,glycan array binding signal (z-score),[1],-0.237
same,glycan array binding signal (z-score),[2],-0.275
same,glycan array binding signal (z-score),[3],0.175
same,glycan array binding signal (z-score),Fuc(a1-4)GlcNAc,-0.35
same,glycan array binding signal (z-score),Fuc(b1-3)GlcNAc,-0.384
same,glycan array binding signal (z-score),Gal(a1-2)Gal,-0.055
same,glycan array binding signal (z-score),Gal(a1-3)Gal,-0.336
same,glycan array binding signal (z-score),Gal(a1-3)Gal(b1-3)GlcNAc,-0.266
same,glycan array binding signal (z-score),[4],-0.049
same,glycan array binding signal (z-score),[5],0.196
same,glycan array binding signal (z-score),[6],-0.05
same,glycan array binding signal (z-score),[7],-0.015
same,glycan array binding signal (z-score),[8],2.08
same,glycan array binding signal (z-score),Gal(a1-3)Gal(b1-4)Glc,-0.254
same,glycan array binding signal (z-score),Gal(a1-3)Gal(b1-4)GlcNAc,-0.255
same,glycan array binding signal (z-score),[9],-0.555
same,glycan array binding signal (z-score),[10],0.098
same,glycan array binding signal (z-score),[11],0.168
same,glycan array binding signal (z-score),[12],-0.274
same,glycan array binding signal (z-score),[13],0.302
same,glycan array binding signal (z-score),[14],0.254
same,glycan array binding signal (z-score),Gal(a1-3)GalNAc,-0.222
same,glycan array binding signal (z-score),[15],2.7
same,glycan array binding signal (z-score),[16],0.267
same,glycan array binding signal (z-score),Gal(a1-4)Gal(b1-4)Glc,-0.299
same,glycan array binding signal (z-score),Gal(a1-4)Gal(b1-4)GlcNAc,-0.214
same,glycan array binding signal (z-score),[17],0.021
same,glycan array binding signal (z-score),[18],-0.018
same,glycan array binding signal (z-score),Gal(a1-4)GlcNAc,-0.308
same,glycan array binding signal (z-score),Gal(a1-6)Glc,-0.432
same,glycan array binding signal (z-score),Gal(b1-2)Gal,-0.204
same,glycan array binding signal (z-score),Gal(b1-3)Gal,-0.365
same,glycan array binding signal (z-score),Gal(b1-3)Gal(b1-4)GlcNAc,-0.159
same,glycan array binding signal (z-score),Gal(b1-3)GalNAc,-0.269
same,glycan array binding signal (z-score),[19],-0.363
same,glycan array binding signal (z-score),[20],-0.282
same,glycan array binding signal (z-score),Gal(b1-3)GalNAc(b1-3)Gal,-0.351
